Test results taken from the BET-seq Pho4 binding data (Le et al. 2018).
The list shows a part of the results. The energies were worked out here from pooled read counts, against the library average; single values are noisy.

The sequences below were run against T1, Pho4 (S. cerevisiae) (UniProt P07270) (assay: relative binding free energy (BET-seq); higher = weaker binding). Details: reference: library average.
T1 sequence: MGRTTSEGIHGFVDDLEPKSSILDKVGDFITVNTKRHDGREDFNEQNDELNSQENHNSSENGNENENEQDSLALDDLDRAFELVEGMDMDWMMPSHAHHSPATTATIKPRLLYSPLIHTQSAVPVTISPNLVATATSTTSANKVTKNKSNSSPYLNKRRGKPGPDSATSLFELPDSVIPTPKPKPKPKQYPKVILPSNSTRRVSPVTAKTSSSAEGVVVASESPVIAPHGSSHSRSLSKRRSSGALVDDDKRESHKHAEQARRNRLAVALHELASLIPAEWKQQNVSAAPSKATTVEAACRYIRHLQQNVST
In the case of GTAGGCACGTGTAATG, the “relative binding free energy” value is reported as 0.06 kcal/mol.
In the case of TTTGCCACGTGTGGCG, the “relative binding free energy” value is reported as 0.15 kcal/mol.
For TCTCTCACGTGTTTGT, the “relative binding free energy” value was 0.22 kcal/mol.
TGGCACACGTGGTTTT was tested, and the “relative binding free energy” value was 0.01 kcal/mol.
With CATGACACGTGGTGGG the “relative binding free energy” value was -0.08 kcal/mol.
GAATGCACGTGGTGTG was tested, and the “relative binding free energy” value was -0.11 kcal/mol.
CGTTCCACGTGGAGGT was tested, and the “relative binding free energy” value was 0.24 kcal/mol.
With TCTATCACGTGAATTT the “relative binding free energy” value was 0.28 kcal/mol.
In the case of AGCAACACGTGTGGGG, the “relative binding free energy” value is reported as 0.07 kcal/mol.
TTTAACACGTGCAAGT was tested, and the “relative binding free energy” value was 0.07 kcal/mol.
For GAAGTCACGTGGCGGC, the “relative binding free energy” value was 0.14 kcal/mol.
AATAGCACGTGTGCAG was tested, and the “relative binding free energy” value was 0.03 kcal/mol.
AAAGTCACGTGGCGTT was tested, and the “relative binding free energy” value was 0.16 kcal/mol.
With TGCGACACGTGGATGG the “relative binding free energy” value was 0.11 kcal/mol.
For TATACCACGTGTGGGA, the “relative binding free energy” value was -0.01 kcal/mol.
In the case of TGAATCACGTGGGCAT, the “relative binding free energy” value is reported as 0.2 kcal/mol.
TTGGGCACGTGAGGGT was tested, and the “relative binding free energy” value was 0.14 kcal/mol.
ATTTTCACGTGTTAGG was tested, and the “relative binding free energy” value was 0.15 kcal/mol.
With AGGGTCACGTGATTAG the “relative binding free energy” value was 0.44 kcal/mol.
For TGTCTCACGTGGTGAA, the “relative binding free energy” value was 0 kcal/mol.
TTTAACACGTGGGAAA was tested, and the “relative binding free energy” value was -0.05 kcal/mol.
With TCGTTCACGTGAAAGT the “relative binding free energy” value was 0.48 kcal/mol.
For ATTCGCACGTGATTGA, the “relative binding free energy” value was 0.23 kcal/mol.
In the case of TGTCGCACGTGTTTGT, the “relative binding free energy” value is reported as -0.11 kcal/mol.
In the case of ATGGACACGTGGGGAT, the “relative binding free energy” value is reported as -0.05 kcal/mol.
For TGTATCACGTGGTAGG, the “relative binding free energy” value was 0.17 kcal/mol.
With CTATTCACGTGGTTGA the “relative binding free energy” value was 0.27 kcal/mol.
In the case of TCTGGCACGTGGGGAG, the “relative binding free energy” value is reported as -0.23 kcal/mol.
For TCGGTCACGTGGTTCA, the “relative binding free energy” value was 0.09 kcal/mol.
For CTTCGCACGTGGGAGG, the “relative binding free energy” value was -0.18 kcal/mol.
In the case of CATAGCACGTGTTTGT, the “relative binding free energy” value is reported as -0.14 kcal/mol.
With AAGTTCACGTGTGGAA the “relative binding free energy” value was 0.45 kcal/mol.
For TGTTTCACGTGGGGCG, the “relative binding free energy” value was 0.16 kcal/mol.
In the case of GCATTCACGTGGTATG, the “relative binding free energy” value is reported as 0.12 kcal/mol.
With CTATTCACGTGTGTTA the “relative binding free energy” value was 0.21 kcal/mol.
With AGCGGCACGTGGATTT the “relative binding free energy” value was 0.05 kcal/mol.
TGAGTCACGTGATTAA was tested, and the “relative binding free energy” value was 0.18 kcal/mol.
In the case of CGGGACACGTGGTTCT, the “relative binding free energy” value is reported as 0.13 kcal/mol.
TTGGTCACGTGACTGA was tested, and the “relative binding free energy” value was 0.13 kcal/mol.
With TGAATCACGTGGATGA the “relative binding free energy” value was 0.18 kcal/mol.
GGTGTCACGTGGGTTA was tested, and the “relative binding free energy” value was -0.02 kcal/mol.
In the case of TTAGTCACGTGGCAAT, the “relative binding free energy” value is reported as 0.03 kcal/mol.
For TTCTGCACGTGCTTGT, the “relative binding free energy” value was -0.01 kcal/mol.
TCGTTCACGTGTGTTC was tested, and the “relative binding free energy” value was 0.34 kcal/mol.
With GCTGGCACGTGCGATG the “relative binding free energy” value was 0.13 kcal/mol.
TTTGTCACGTGTATTA was tested, and the “relative binding free energy” value was 0.13 kcal/mol.
For ATTGACACGTGGAGTT, the “relative binding free energy” value was 0.09 kcal/mol.
With TTATACACGTGAGAGG the “relative binding free energy” value was 0.35 kcal/mol.
For GGCTGCACGTGACGGG, the “relative binding free energy” value was 0.02 kcal/mol.
In the case of TTTTACACGTGCTCGG, the “relative binding free energy” value is reported as -0.03 kcal/mol.
For TTCGACACGTGCTGGG, the “relative binding free energy” value was -0.04 kcal/mol.
For GTAAGCACGTGTCGGG, the “relative binding free energy” value was 0.03 kcal/mol.
In the case of AGGCCCACGTGGTATG, the “relative binding free energy” value is reported as -0.07 kcal/mol.
For TTAGTCACGTGGAATT, the “relative binding free energy” value was 0.13 kcal/mol.
For TACGGCACGTGGGTTT, the “relative binding free energy” value was -0.19 kcal/mol.
With AGGGTCACGTGTTTAT the “relative binding free energy” value was 0.16 kcal/mol.
For GTTCTCACGTGTGGTC, the “relative binding free energy” value was 0.32 kcal/mol.
With CATAGCACGTGGAAGG the “relative binding free energy” value was 0.03 kcal/mol.
For AGGCTCACGTGAGCGG, the “relative binding free energy” value was 0.32 kcal/mol.
GTGCCCACGTGGGTTT was tested, and the “relative binding free energy” value was -0.18 kcal/mol.
In the case of CCGGGCACGTGGGGTG, the “relative binding free energy” value is reported as -0.24 kcal/mol.
In the case of GGTTACACGTGCGAGA, the “relative binding free energy” value is reported as 0.24 kcal/mol.
With TGGGTCACGTGCTGTC the “relative binding free energy” value was 0.21 kcal/mol.
In the case of GGTATCACGTGATGTA, the “relative binding free energy” value is reported as 0.23 kcal/mol.
In the case of TAGGTCACGTGATAAA, the “relative binding free energy” value is reported as 0.29 kcal/mol.
With TATACCACGTGGGTTT the “relative binding free energy” value was -0.16 kcal/mol.
With TTAGTCACGTGATTCA the “relative binding free energy” value was 0.24 kcal/mol.
TCTGGCACGTGAGTTG was tested, and the “relative binding free energy” value was 0.21 kcal/mol.
In the case of TTCTTCACGTGGTTTG, the “relative binding free energy” value is reported as 0.08 kcal/mol.
With GGTGGCACGTGTTTGC the “relative binding free energy” value was -0.12 kcal/mol.
In the case of GGGAACACGTGGCGTT, the “relative binding free energy” value is reported as 0.04 kcal/mol.
In the case of CAGGCCACGTGGTGGA, the “relative binding free energy” value is reported as -0.11 kcal/mol.
With AATGGCACGTGAGTTC the “relative binding free energy” value was 0.19 kcal/mol.
TGTTACACGTGGCGTA was tested, and the “relative binding free energy” value was 0.13 kcal/mol.
In the case of GATAGCACGTGATGGT, the “relative binding free energy” value is reported as 0.16 kcal/mol.
In the case of TTAGACACGTGGAGTA, the “relative binding free energy” value is reported as -0.03 kcal/mol.
In the case of TTTTACACGTGGGAAG, the “relative binding free energy” value is reported as 0.11 kcal/mol.
TTTGTCACGTGCTGGG was tested, and the “relative binding free energy” value was 0.11 kcal/mol.
For ATGTCCACGTGTTATT, the “relative binding free energy” value was -0.06 kcal/mol.
In the case of ATGGTCACGTGCTAGT, the “relative binding free energy” value is reported as -0.04 kcal/mol.
In the case of GAGGACACGTGGCGTG, the “relative binding free energy” value is reported as -0.07 kcal/mol.
AATGTCACGTGTTGGC was tested, and the “relative binding free energy” value was 0.17 kcal/mol.
AGTGACACGTGATAGG was tested, and the “relative binding free energy” value was -0.07 kcal/mol.
AAAGTCACGTGTTTTG was tested, and the “relative binding free energy” value was 0.1 kcal/mol.
GGGTACACGTGGGGCC was tested, and the “relative binding free energy” value was 0.04 kcal/mol.
With AGAGGCACGTGTGTGA the “relative binding free energy” value was -0.1 kcal/mol.
With ATTGGCACGTGGGTAC the “relative binding free energy” value was -0.24 kcal/mol.
GTTTACACGTGGGCTG was tested, and the “relative binding free energy” value was -0.05 kcal/mol.
GTGAACACGTGATGTT was tested, and the “relative binding free energy” value was 0.19 kcal/mol.
In the case of TGGGCCACGTGTGTGT, the “relative binding free energy” value is reported as -0.09 kcal/mol.
With CTGCGCACGTGGGTTT the “relative binding free energy” value was -0.21 kcal/mol.
In the case of TGGTCCACGTGAGGCA, the “relative binding free energy” value is reported as 0.29 kcal/mol.
In the case of GGCGTCACGTGATTGT, the “relative binding free energy” value is reported as 0.22 kcal/mol.
With ATTGTCACGTGAACTT the “relative binding free energy” value was 0.29 kcal/mol.
For GGATTCACGTGTACTG, the “relative binding free energy” value was 0.36 kcal/mol.
In the case of AGGTCCACGTGTCGGT, the “relative binding free energy” value is reported as -0.1 kcal/mol.
With GGATTCACGTGGAGAA the “relative binding free energy” value was 0.33 kcal/mol.
For GGTCGCACGTGGATAG, the “relative binding free energy” value was -0.1 kcal/mol.
CAGGTCACGTGGTTAT was tested, and the “relative binding free energy” value was 0.16 kcal/mol.
With ATATACACGTGGTGGC the “relative binding free energy” value was -0.14 kcal/mol.
In the case of TTGTGCACGTGTTTGG, the “relative binding free energy” value is reported as 0.02 kcal/mol.
In the case of TGTATCACGTGGCTTT, the “relative binding free energy” value is reported as 0.15 kcal/mol.
For TTTAACACGTGCATTG, the “relative binding free energy” value was 0.08 kcal/mol.
GATGCCACGTGTGGGA was tested, and the “relative binding free energy” value was 0.12 kcal/mol.
For GTTATCACGTGGTGAT, the “relative binding free energy” value was 0.09 kcal/mol.
With TGTAACACGTGCAGGT the “relative binding free energy” value was -0.18 kcal/mol.
In the case of GACGGCACGTGGTCAG, the “relative binding free energy” value is reported as 0.04 kcal/mol.
For GTGTGCACGTGTCGCT, the “relative binding free energy” value was 0.05 kcal/mol.
For TCTCGCACGTGAGTTT, the “relative binding free energy” value was 0.27 kcal/mol.
For GCAGTCACGTGGTGTA, the “relative binding free energy” value was -0.07 kcal/mol.
In the case of AGATGCACGTGGAGAT, the “relative binding free energy” value is reported as -0.09 kcal/mol.
In the case of TCGGTCACGTGGGGGT, the “relative binding free energy” value is reported as -0.05 kcal/mol.
In the case of CTTGGCACGTGTGGGT, the “relative binding free energy” value is reported as 0.02 kcal/mol.
With AGGTACACGTGATTAG the “relative binding free energy” value was 0.16 kcal/mol.
In the case of AGTAGCACGTGTGGGA, the “relative binding free energy” value is reported as -0.05 kcal/mol.
